In PMC12136788:
Some of the results follow.

B1: ENSG00000070961:be:win_2451|CDS|ENSG00000070961|bound_else_gene|NA|bound_elsewhere_windowed (ssRNA)
RNA: GGGAGUUCUACAGUCCGACGAUCUGGAACUGAUGUAGCUAAAGAAGCAUCCGAUAUUAUUCUCACAGAUGACAACUUUACAAGCAUUGUUAAAGCAGUUAUGUGGGGACGAAAUGUCUAUGACAGCAUCUCAAAAUUCCUUCACAACAGAGGAUUGAGCAUCA
B2: chr16:56429670:56429771:-|3pUTR|ENSG00000167005|msi1|total|mutant (ssRNA)
RNA: GGGAGUUCUACAGUCCGACGAUCCAAUCACUGAGACUGCAUCAGAGUUUGCAAUUUUGUAUGUUUCAUUGCCAAAGAAGGCUCCGUGGUUGUUGACUGCCGUAUAAGUCAGCUUUCUGCCGCAUAAGAUUUGAUUUUCCCAUACAACAGAGGAUUGAGCAUCA
B3: ENSG00000124766:be:win_3601|3pUTR|ENSG00000124766|bound_else_gene|NA|bound_elsewhere_windowed (ssRNA)
RNA: GGGAGUUCUACAGUCCGACGAUCUGUACUGCGUUUUUCAUUCUUGUAUUUGACUAUUUAAUCCUUUCUACUUGUCGCUAAAUAUAAUUGUUUUAGUCUUAUGGCAUGAUGAUAGCAUAUGUGUUCAGGUUUAUAGCUGUUGUGCAACAGAGGAUUGAGCAUCA
B4: ENSG00000103657:stop:overlap|stop_codon|ENSG00000103657|stop_codon|NA|stop_codon (ssRNA)
RNA: GGGAGUUCUACAGUCCGACGAUCAGUUUUCUGUUGCUUUGACCAAAGAUGGUCAUGUGUAUACCUUUGGUCAAGGUGGUGAGUAGUCACUAUGACCUCCUUUCAGUAUAGAUAAUUUUCCACUUCUCUUUCAUGUGCUUUAUUCAACAGAGGAUUGAGCAUCA
B5: chrX:120613669:120613770:+|3pUTR|ENSG00000232119|msi1|total|mutant (ssRNA)
RNA: GGGAGUUCUACAGUCCGACGAUCUAUGCCUCCUGUAUAUCCUGUAAACAAAUAAGAUUGAUCAGAUUCAGGUUCAGUUUUUUCCGUGCCUUCUUUUGAGUAAAGUCAUACCAAACAGAUGCCCAGAACAUCUGGAUUUGGGUCCAACAGAGGAUUGAGCAUCA
B6: chr7:82949737:82949846:-|CDS|ENSG00000186472|unk|FALSE|unique (ssRNA)
RNA: GGGAGUUCUACAGUCCGACGAUCAAGUCCUCAAUAUCUGAGUGCCACAUCUCCACCCAAAGACAAGAAACGCCCAACACCUUUAGAGAUUGGUUAUUCAUCUCACCUCCGGGCAGAUUCCACAGUACAGCUGGCUCCUUCCCCCAACAGAGGAUUGAGCAUCA
B7: chr5:177595998:177596040:+|3pUTR|ENSG00000184840|msi1_unk|total|mutant (ssRNA)
RNA: GGGAGUUCUACAGUCCGACGAUCCCUGAGCUGCUUCACAUGGUUGUCCAUUCUGGGGCUUAAAGAACUGGGACCAGACCAAGCCGAGGCCUUGGUGCUGGUUGGGGUGGGGCCUGCAGAGUCUCCGUUACUGAUUUCAUUUUCCAACAGAGGAUUGAGCAUCA
B8: chr5:56881662:56881777:+|CDS|ENSG00000095015|unk|total|mutant (ssRNA)
RNA: GGGAGUUCUACAGUCCGACGAUCGAUCUACUUGAGUUCUGCAAGAAUGGUUACUACAGUACCCCAUGUGUUUUCAAAACUGUCCGAAAUGCUGAGUGUUUCCAGUUCCACUCACUUCACCAGGAUGCGUCGCCGUUUGAUGGCCAACAGAGGAUUGAGCAUCA
B9: chr9:133763799:133763900:-|3pUTR|ENSG00000160293|msi1|total|mutant (ssRNA)
RNA: GGGAGUUCUACAGUCCGACGAUCCGAACCGUUUCACUGUCAGCCUGCCCUCGGCGACCCAUCACUGGGUAUGCUAUUGUACACCGAGGAAACCUGGGCCCGCCCCACCCAGAGCGCAGAGGAGGGGGCACCGACAGCGCUGCGCAACAGAGGAUUGAGCAUCA
B10: ENSG00000198589:be:win_6451|CDS|ENSG00000198589|bound_else_gene|NA|bound_elsewhere_windowed (ssRNA)
RNA: GGGAGUUCUACAGUCCGACGAUCGCUGUGAUGUUCAACUUCCCAGACCCUGCAACAGUAAAGAAAGUGGUUAACUAUCUACCUCGUGUUGGCGUUGGAACAAGUUUUGGAUUGCCUCAAACCAGACGUAUUUCAUUAGCUAGUCAACAGAGGAUUGAGCAUCA
B11: chr9:137457406:137457901:-|CDS|ENSG00000165802|control|control|control (ssRNA)
RNA: GGGAGUUCUACAGUCCGACGAUCCGCCUGUCCCUCGUCUCCAACGGCUGCUACGAGGGCAGCCUCUCAGAGGAGCCCAGCAUUAGGAAGCCCGCAGGCGAGGGCCCUCAGCCUCGAGUGUACACCAUCUCUGGGGAGCCUGCCCAACAGAGGAUUGAGCAUCA
B12: chr8:140515610:140515764:+|3pUTR|ENSG00000104472|unk|FALSE|unique (ssRNA)
RNA: GGGAGUUCUACAGUCCGACGAUCUUUUGGAAUCAGUUCUUAUAAACAGCUCGAUUCAGUUUUAGCUAAAUUUAUAGUUUAGGUAGUAUGUUACAUUUGAAUUUUUGUCUUAAGAAAAGUUGACUGUUCAGAUAUUUUUCUACUCAACAGAGGAUUGAGCAUCA
B13: chr14:21351797:21351898:-|3pUTR|ENSG00000092201|msi1|total|mutant (ssRNA)
RNA: GGGAGUUCUACAGUCCGACGAUCGAGGAAGGCUCAAAGGAGUCAACAUUUAUAUCUGGAAGGGACAAGUCAUGCCUUGGGCCCCGAAUACCCUGAUGAGAAAAGAGAAGAGGAAGGGAGGCCAUAUCUACAACACAGCCUCUCCAACAGAGGAUUGAGCAUCA
B14: chr3:179334110:179334217:+|CDS|ENSG00000121864|unk|FALSE|unique (ssRNA)
RNA: GGGAGUUCUACAGUCCGACGAUCACAUACAAAAAUUUUUCCUCAUGUUUGUGAUGACUGUGGGAAAGGCUUUUCAAGUAUGCUAGAAUAUUGCAAGCAUUUAAAUUCACAUUUAUCUGAAGGGAUUUAUUUAUGUCAAUAUUGCAACAGAGGAUUGAGCAUCA

Biological target: MSI1 full-length (mouse, UniProt Q61474 1-362)
Assay: nsRBNS (natural sequence RNA bind-n-seq); RBNS binding buffer (assumed for nsRBNS): 25 mM Tris pH 7.5, 150 mM KCl, 3 mM MgCl2, 0.01% Triton X-100, 500 ug/ml BSA, 20 U/ml SUPERase-In, 4 C; UNK is unkempt and MSI1 is Musashi-1; names of the RNAs are library labels; protein concentration not given here; high values mean tight binding

Sequence of UniProt Q61474 (Q61474 whole entry): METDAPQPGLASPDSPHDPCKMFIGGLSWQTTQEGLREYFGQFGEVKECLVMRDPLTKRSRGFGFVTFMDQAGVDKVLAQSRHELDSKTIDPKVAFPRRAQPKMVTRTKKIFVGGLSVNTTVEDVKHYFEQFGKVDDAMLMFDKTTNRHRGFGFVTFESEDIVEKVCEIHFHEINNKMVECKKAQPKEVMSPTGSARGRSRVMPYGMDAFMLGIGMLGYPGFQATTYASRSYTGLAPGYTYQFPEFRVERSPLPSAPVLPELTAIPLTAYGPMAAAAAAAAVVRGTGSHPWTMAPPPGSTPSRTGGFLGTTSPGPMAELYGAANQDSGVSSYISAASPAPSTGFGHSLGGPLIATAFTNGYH

Binder	binding signal
B1	0.203 enrichment R
B2	0.291 enrichment R
B3	1.86 enrichment R
B4	0.712 enrichment R
B5	0.25 enrichment R
B6	0.661 enrichment R
B7	0.42 enrichment R
B8	0.393 enrichment R
B9	0.483 enrichment R
B10	3.48 enrichment R
B11	0.4 enrichment R
B12	69.1 enrichment R
B13	1.04 enrichment R
B14	0.274 enrichment R
